From the supplement of paper PMC3334620
Over roughly 33,000 sequences, “E-score (-0.5 to 0.5)” has its median near -0.013; the highest 2% begin near 0.3. Some of the results follow.

The sequences below were run against T1, Msn1 (UniProt P22148) (assay: PBM E-score (8-mer binding enrichment) (E-score (-0.5 to 0.5)); higher = stronger / more preferred TF binding; most listed sequences are background and not binding sites). Details: protein concentration: 200 nM; construct: GST-full length.
T1 sequence: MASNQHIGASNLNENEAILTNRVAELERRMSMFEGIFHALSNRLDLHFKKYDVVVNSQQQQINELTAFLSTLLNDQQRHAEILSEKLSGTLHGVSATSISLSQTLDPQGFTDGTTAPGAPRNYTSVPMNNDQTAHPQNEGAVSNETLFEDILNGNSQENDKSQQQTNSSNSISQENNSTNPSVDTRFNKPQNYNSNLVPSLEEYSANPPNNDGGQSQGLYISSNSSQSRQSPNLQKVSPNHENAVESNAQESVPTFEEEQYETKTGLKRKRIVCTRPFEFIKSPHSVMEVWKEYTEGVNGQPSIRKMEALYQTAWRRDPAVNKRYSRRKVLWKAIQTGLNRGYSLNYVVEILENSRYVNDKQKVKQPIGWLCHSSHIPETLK
Procedure, shortened: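 Full-length yeast transcription factors or their DNA-binding domains, GST-tagged and expressed with PURExpress, were applied at about 100-200 nM to universal all-10-mer Agilent arrays. These arrays had been made double-stranded by primer extension on fresh or once-stripped slides. Detection used fluorescent anti-GST, normalisation used masliner, and E-scores for ungapped eight-base words pooled with reverse complements came from the Universal PBM Analysis Suite.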

Point of comparison: GTGATCCA, “PBM E-score” value -0.0635. Against it:
- ACAAAGAC — higher, 0.289
- CATAGGGA — higher, 0.0296
- CCCCCTCA — lower, -0.36
- ACTCTGCT — lower, -0.171
- CCACACTC — lower, -0.0712
- ATGCGAGC — lower, -0.0795
- ATACAAAA — higher, 0.2
- ACACTTTC — higher, 0.0597
- GCACGTAC — lower, -0.121
- AAATTGAC — higher, 0.079
- CCTTTTAG — higher, 0.0539
- ATATATAA — higher, 0.162
- ATGTCTCA — higher, 0.446
- CCCGTATA — higher, 0.0258
- AGTTACTC — higher, -0.011
- ATATTTTG — higher, 0.176
- ACTGTGTA — higher, 0.0465
- ACGCTATA — lower, -0.107
- TCCTACGA — higher, -0.0195
- TTCCCGAA — higher, 0.085
- AGTGGGGA — lower, -0.185
- AAGCTCTC — lower, -0.109
- CCGCGAGA — lower, -0.0866
- CGAGTCAC — lower, -0.127
- TCGTATCA — higher, 0.102
- GAGCGCAA — lower, -0.136
- GCGGGTTA — higher, -0.0146
- GAAGGATA — lower, -0.142
- ACAGGCGC — lower, -0.136
- AGCAGAAG — higher, -0.0203
- CGTTTGAC — higher, 0.12
- AAATTATC — higher, 0.234
- GACGTAAC — higher, 0.142
- AGATTGAC — lower, -0.198
- GTGTAGGA — higher, 0.0397
- ATGATCGG — higher, 0.0453
- ACGGTTAA — lower, -0.117
- GTGTATGA — higher, 0.178
- ATTTATGA — higher, 0.206
- ATCCTTTA — higher, -0.0459
- AGAGGTAT — higher, 0.111
- CACGCGAA — higher, 0.0566
- AATCTGCA — lower, -0.0868
- CACAAGTG — lower, -0.247
- CCAGCACA — higher, -0.054
- CGCTCCGC — lower, -0.0704
- TAGGCTAA — lower, -0.167
- GTAGTGAA — higher, 0.0152
- TCTTTGAA — higher, 0.00896
- CACTATCA — lower, -0.0646
- GAACAAAA — higher, 0.287
- AACCAAAA — higher, 0.142
- CAGTTCAA — higher, -0.0355
- ACCCAGGA — higher, -0.00044
- ATTTCTAG — higher, 0.0619
- CCCACATA — higher, -0.0186
- GAACGGCA — higher, -0.0091
- CAGCACGA — lower, -0.102
- CACGTAAC — higher, -0.0236
- GCCGCTAC — higher, -0.0262
- AGTATGTG — higher, 0.0347
- AAGCTGTG — higher, 0.0979
- ATGAGCTA — higher, 0.00502
- GGGATTTA — higher, 0.0846
- GTTAAATA — higher, -0.0463
- ACCATCAT — lower, -0.0869
- ATCAGCTC — higher, 0.00283
- ATGTAGTA — higher, 0.245
- GCACTGAA — lower, -0.204
- TAAGTCTA — lower, -0.122
- CTAACCCA — higher, 0.024
- TGTTGAAA — higher, 0.119
- CTTTAGGA — higher, 0.0139
- CGGCCCCC — lower, -0.371
- TGTGAGAA — higher, -0.0248
- ACGGGATC — lower, -0.0691
- TCCACCCA — lower, -0.196
- GAGAGTCA — higher, -0.0417
- AGTCCCAA — higher, 0.17
- CGGAGTTC — higher, 0.0942
- AATTGTGA — higher, 0.215
- AACCTTTG — higher, 0.0323
- GGTTAACC — lower, -0.174
- AAGCGTCA — lower, -0.0802
- GGCCGCCC — lower, -0.198
- CGATTCCA — lower, -0.073
- AACATTCC — higher, -0.0175
- CGAGGTTC — lower, -0.0645
- AGGTTACC — higher, 0.00639
- ATGAAACC — higher, 0.0454
- AATCCTAC — lower, -0.195
- ATTCGGCA — lower, -0.107
- CATCAAGC — higher, -0.0178
- AGTCCAGC — higher, -0.0609
- AGTCTTAA — higher, 0.11
- CCATAACA — higher, 0.0696
- ATTGGGTC — higher, -0.0532
- GTTGAGTA — higher, 0.121
- ACCGCTCG — lower, -0.201
- CTAGCTAA — lower, -0.126
- ATTTCTAA — lower, -0.147
- CCCAGAAC — higher, -0.00938
- AGCGCGAC — higher, 0.0772
- GAAGGGTC — lower, -0.334
- GCCCTTAA — lower, -0.0897
- CGACATCA — higher, 0.125
- AGCGGCGC — higher, 0.0394
- AGATAGTA — higher, 0.215
- GGGAGCCA — lower, -0.287
- CACTCGTC — higher, -0.0484
- AGACATAT — higher, 0.47
- GAACTACA — lower, -0.0933
- AAAGCCGG — higher, 0.0349
- CCCGACGG — lower, -0.218
- ATAAGTTC — higher, 0.111
- CATCACAA — higher, 0.0752
- TATCGCCA — higher, -0.0488
- ACAAGTCT — higher, 0.198
- TATCGACA — higher, 0.203
- TACGTGAA — higher, 0.0139
- CTAAGGGA — higher, 0.0645
- AGCGGTCC — lower, -0.0781
- AATGCCTG — higher, -0.0472
- CTACTCAG — lower, -0.206
- GCGGCCTA — lower, -0.152
- AACAAGAG — lower, -0.224
- CATGCCAC — lower, -0.149
- AAAATTAA — higher, 0.187
- CTTTCACA — higher, 0.196
- GAGACGGC — higher, -0.0338
- CGGCACCA — higher, 0.0388
- CTATGTAC — higher, 0.189
- GGATCAGA — lower, -0.252
- AATACCAA — higher, 0.0722
- GATTAAGA — higher, 0.122
- AACTAATC — lower, -0.109
- AATATATC — higher, 0.127
- ATTACCAC — higher, 0.0752
- AGGAAAAT — higher, -0.0421
- AACTGACA — higher, 0.15
- GAAGCTTA — higher, 0.00159
- TCTTTTCA — higher, 0.101
- GAACGGTC — higher, -0.0602
- ACGCTCCC — lower, -0.164
- AAGCCATA — higher, -0.00452
- GGCTTTAC — higher, 0.022
- ACCGGAGT — lower, -0.0967
- GACCACTA — lower, -0.131
- CTCTATGA — lower, -0.178
- AGGAGAAA — lower, -0.189
- AATAGACA — higher, 0.259
- AAATTGCG — higher, 0.012
- GTGTACAA — higher, 0.32
- CTCTTAGC — lower, -0.0929
- ATGAACTC — higher, -0.035
- ATCAGTCA — higher, 0.0402
- GAATAACA — higher, 0.0873
- ATCTAGAT — higher, 0.0576
- ACAAGTCC — higher, 0.363
- AGGTTTGG — lower, -0.106
- CAGTGCCA — lower, -0.26
- CAGTGGCC — lower, -0.238
- CCCCTTGC — lower, -0.207
- CTCCTGTA — higher, 0.058
- CAAATAGC — higher, 0.106
- ACGACCGC — lower, -0.219
- CTTATAAA — higher, 0.278
- CGCAAACA — higher, 0.143
- TCAGAAGA — higher, -0.0475
- ATGGCTGC — lower, -0.108
- GTCTAGTA — higher, 0.243
